From ChEMBL document CHEMBL4888484, “Replenishing the malaria drug discovery pipeline: Screening and hit evaluation of the MMV Hit Generation Library 1 (HGL1) against asexual blood stage Plasmodium falciparum ,using a nano luciferase reporter read-out” (2022)
Screen size: about 150,000 compounds; about 540 (0.36%) showed an effect of 50% or more. The list shows a part of the results.

These compounds were tested on Plasmodium falciparum (assay: Primary screen in NF54 nanoGlo assay, in single point, at 2uM, 72h; a lower Z score goes with more inhibition). Settings: timepoint 72 hour.
Type: functional, Erythrocyte

SMILES | % Inhibition | Z score
CC(C(=O)Nc1cccc(C(F)(F)F)c1)(C(F)(F)F)C(F)(F)F | -16% | 3.05
CCCNC(=O)c1[nH]cnc1C(=O)NCC1CCCCC1 | 4% | -0.79
CC(=O)NCCNS(=O)(=O)c1cc(N(C)C)ccc1Br | 23% | -2.58
Cc1coc2ccc(NC(=O)NCC(F)(F)F)cc12 | 0% | 0
CC(C)C[C@H](C)N(C)C(=O)c1cc(S(=O)(=O)N2CCCC2)c[nH]1 | -10% | 1.03
CCc1nccc(CN2CC[C@H](O)CC(C)(C)C2)n1 | -1% | 0.1
CCCNC(=O)N(CC(=O)N1CCN(c2ccc(-c3ccc(OC)c(OC)c3)nn2)CC1)Cc1ccco1 | -14% | 1.2
Cc1ccn(CC(=O)NCC2(N3CCOCC3)CCCCC2)c(=O)c1C#N | -6% | 1.23
Cc1c(C(=O)N2CCCCC2)c(C(F)(F)F)nn1[C@H]1CCCN(C)C1 | 4% | -0.54
NC[C@@H](C(=O)Nc1ccc2[nH]ncc2c1)c1ccccc1 | -1% | 0.14
Cn1nc2nc(N3CCN(Cc4ccc(F)cc4)CC3)nc(-c3ccccc3F)c2c1N | -8% | 0.76
Cc1cc(C(C)C)nc(NCc2nccn2C(F)F)n1 | -10% | 1.17
Cc1nc(C)n(CC(=O)N2CCC[C@H](C(=O)c3ccc(C(F)(F)F)cc3)C2)n1 | -3% | 0.59
CC(=O)NCCn1ccnc1-c1cc2ccccc2s1 | -5% | 0.85
CN(Cc1nccs1)C(=O)[C@H]1CCOc2ccccc2C1 | -12% | 2
Cc1n[nH]c(C)c1S(=O)(=O)NC(C)(C)C | 0% | 0.01
CC(C)(c1ccccc1)c1ccc2cc(O)cc(N3CCCCC3)c2c1 | 3% | -0.42
CCc1cccc(NC(=O)Cn2c(=O)n(Cc3ccc(C)cc3)c(=O)c3nn(CC)cc32)c1 | -2% | 0.24
COc1ccnc(NC(=O)CCC(C)C)c1 | -16% | 2.23
CC[C@H]1CN(Cc2cc(C#N)n(C)c2C)CCN1C(C)C | -13% | 2.27
Cc1c(C(=O)NC[C@](C)(O)c2ccc(F)cc2F)cnn1C | 33% | -4.48
CC(C)(C)c1nnc2ccc(N[C@H]3C[C@@](C)(O)C3)nn12 | -4% | 0.62

SMILES | % Inhibition | Z score
COc1ccc(NC(=O)Nc2ccc3c(c2)C(N2CCOCC2)=Nc2ccccc2O3)cc1 | 6% | -1.09
CC(C)NC(=O)[C@@H]1COC2(CCN(C(=O)c3cccs3)CC2)N1C(=O)c1ccc(F)cc1 | 1% | -0.17
CCc1c(C(=O)N2CCC(C(=O)O)(n3cccn3)CC2)csc1C | -7% | 1.25
CC(C)[C@H](C)N1Cc2cccc(NCc3nnc(C(C)(C)C)o3)c2C1 | 8% | -1.05
CC(C)(C)C(=O)NCCCC(=O)NC1CCCC1 | -9% | 1.86
CCOC(=O)N1CCC(NC(=O)c2cc(-c3cccc(OC)c3)nn2C)CC1 | 6% | -0.88
CCN(C(=O)C1CCCN(C(=O)NC2CCCC2)C1)C1CC(=O)NC1=O (stereo not given) | -4% | 0.67
Cc1ncsc1[C@@H]1CC(=O)Nc2nc(N3CCC(C)CC3)nc(O)c21 | 37% | -5.33
COCCN(CCOC)C[C@H](O)Cn1c(-c2ccccc2)c(-c2ccccc2)c2cc(C)ccc21 | 0% | 0.06
CCN1CCCN(C(=O)c2ccc(C(=O)N3CCOCC3)cc2)CC1 | -2% | 0.33
COc1ccc2c(c1)C(N1CCCN(C(=O)Nc3ccc(C(C)C)cc3)CC1)=Nc1cc(C(F)(F)F)ccc1O2 | -1% | 0.08
CCc1ccc(-c2cn3c(-c4ccccc4)c(-c4ccccc4)nc3[nH]2)cc1 | -7% | 0.75
CCC[C@]1(CO)CCCN1C(=O)c1ccc(=O)[nH]n1 | 3% | -0.23
CC(C)Cc1nc(CN2C(=O)OC[C@@H]2c2ccccc2)no1 | -5% | 0.88
CC(=O)Nc1ccc(C(=O)N2CCC[C@](C)(F)C2)nc1 | -4% | 0.59
O=C1Nc2ccccc2O[C@H]2C[C@@H]1N(Cc1ccc3c(c1)OCO3)C2 | 13% | -1.48
CCOc1ccc(C(=O)N2CCN(c3cc(C)n4cnnc4n3)CC2)cc1 | -6% | 0.81
Cc1csc(C(=O)N2CCC3(CCCN3C)CC2)c1 | -7% | 0.91
CN(C)c1noc(-c2ccc3c(c2)CCCCC3=O)n1 | -10% | 0.82
CC1CCCC(C)N1C(=O)N(C)Cc1ccccc1N (stereo not given) | 6% | -0.62
O=C(Cc1cnn(-c2ccccc2)c1)Nc1ncnc2ccsc12 | 4% | -0.76
C[C@@H](CCC(=O)O)NC(=O)c1cc(Br)ccc1F | -6% | 0.58

SMILES | % Inhibition | Z score
CN(CCC1CCOCC1)C(=O)Nc1ccc(F)cn1 | -8% | 1.13
CC(C)CCNC(=O)Cc1cn(C)c2ncccc12 | -9% | 1.1
Cc1nn(-c2ccc(C#N)cc2)c(NC(=O)NCc2ccccn2)c1C | -7% | 1.44
O=C(N[C@@H]1CCCOC1)N1CC(F)C1 | -5% | 0.69
CS(=O)(=O)NCc1nc(C(F)(F)F)cs1 | -3% | 0.4
Cc1ccc(NC(=O)N2CC(c3nc(C(C)C)nn3C)C2)cc1 | 28% | -3.83
COc1ccc(C)cc1S(=O)(=O)N1CC(N2C(=O)C3CC=CCC3C2=O)C1 (stereo not given) | -3% | 0.47
Cc1cccc(C)c1NCC(=O)Nc1ncc(Cc2ccc(Br)cc2)s1 | 33% | -3.71
CC(C)c1noc(CCCN=C(N)N2CCOCC2)n1 | -14% | 1.98
Fc1ccc(N2CCN(c3ncnc4c3cnn4NCc3ccc(Cl)cc3Cl)CC2)cc1 | 26% | -2.99
CC1CCC(CCC(=O)NC(C#N)c2c(F)cccc2Cl)O1 (stereo not given) | -7% | 1.03
Cc1nc([C@H](C)NC(=O)C2CC=CC2)cs1 | -2% | 0.4
CCNc1nc(C(=O)N2CC[C@@H]3CCCC[C@@H]32)cs1 | -4% | 0.6
COC(=O)C1=C(C(=O)OC)SC(=C2C(=S)C(C)(C)Nc3c(C)cc(C)cc32)S1 | -5% | 0.57
CCn1cc(CN2CC[C@H](CNC(=O)c3cccc(O)c3)C2)c(C)n1 | -19% | 1.9
CC(C)OCCCNS(=O)(=O)CCNC(=O)c1ccccc1 | -17% | 2.15
CCOC(=O)N[C@@]1(C(F)(F)F)N=C(c2ccccc2)N(Cc2ccncc2)C1=O | 1% | -0.14
Cn1ccnc1[C@@H](O)CNc1nccc(-c2ncnn2C)n1 | -10% | 1.27
COc1ccc(-c2c(C)c(-c3nnc(C)o3)nn2-c2ccc(C(=O)NC(C(C)C)C(C)C)cc2)cc1 | 5% | -0.93
O=C(NCC1CCC2(CC1)OCCO2)N1CCCCCC1 | 1% | -0.14
NC(=O)C1CCN(C(=O)Nc2nc(C(F)(F)F)cs2)CC1 | 36% | -4.88
CN1CCCCC[C@H](O)c2cc(C(=O)N3CCN(c4ncccn4)CC3)ccc21 | -2% | 0.19

SMILES | % Inhibition | Z score
COc1ccc(-c2noc([C@@H]3CCCN3C(=O)NC3CCCC3)n2)cc1 | 0% | -0.01
CC(C)NC(=O)c1ccc(-c2ccc(C(=O)NCCCc3ccco3)cc2)o1 | -13% | 2.04
Cc1nccn1CCCN(C)Cc1ccccn1 | -11% | 1.55
CCC(=O)N1CCN(c2cc(N3CCCC3)ncn2)CC1 | -13% | 1.43
Cc1n[nH]c(C)c1CNC(=O)c1cn2c(n1)C(=O)N(C)CC2 | -10% | 1.33
Cc1nn(C)cc1CNC(=O)C(=O)Nc1cccc2nonc12 | -5% | 0.89
Cc1nnsc1C(=O)N[C@@H](C)Cc1csc2ccccc12 | 0% | -0.03
Cc1noc2ncnc(N3CCCC3CC(O)c3cnn(C)c3)c12 (stereo not given) | 4% | -0.69
Cc1ccc(NCCCNC(=O)CN2CCC[C@H](O)C2)nc1 | -2% | 0.37
Cc1ccc(C)c(C(=O)N2CC3CC2CO3)c1 (stereo not given) | -13% | 1.5
Cc1ccc(N[C@H]2CS(=O)(=O)C[C@H]2O)cc1 | 3% | -0.4
C[C@@H](C(=O)N1CCN(c2nncc3ccccc23)CC1)n1cccn1 | -14% | 1.64
CC(C)c1nccc(C(=O)NC[C@@H](CO)Cc2ccco2)n1 | -11% | 1.42
CNC(=O)[C@H]1CN(C(=O)c2ccc(C)c(F)c2)CC12CCCC2 | -1% | 0.17
CC(C)(CNC(=O)NC[C@]1(O)CCOC1)Cc1cccc(Cl)c1 | -8% | 1.5
CC(C)c1nc(C2CCN(C(=O)Nc3ccc(C(C)(C)C)nn3)CC2)no1 | -6% | 0.48
CCc1ccc(NC(=O)Cc2c(C)nn(-c3nc(C)cs3)c2O)cc1 | -14% | 1.73
CCOC1CC(NS(=O)(=O)c2ccc(CN(C)C)cc2)C12CCCO2 (stereo not given) | -6% | 1.04
O=C1c2ccccc2C(=O)N1CCCn1cc(Cl)cn1 | -17% | 1.7
